Laboratory results taken from PubChem BioAssay AID504648 (National Center for Advancing Translational Sciences (NCATS), 2011).
Hit rate of the full screen: of about 390,000 compounds, about 610 (0.16%) were called active. About 4% were inconclusive and are not listed. Calls come from the whole dose curve; as a rule, active = well fitted inhibition curve with a large enough effect; inconclusive = small, poorly fitted or top-dose-only effect, or effect the other way, or another doubt; inactive = no such curve, though single readings can be large or run the other way. The list shows a part of the results, in another mix than the full data. Where a structure was tested more than once in an assay, its records may differ in their call.

Test: Nrf2 qHTS screen for inhibitors: counterscreen for cytotoxicity
Conditions: A549 ARE-Fluc cells, CellTiter-Fluor viability, 18-24 h; series mostly up to 46 µM; activity change, negative = cytotoxicity: at the top concentration
Procedure, shortened: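 A549 ARE_Fluc cells in 5% FBS OPTI-MEM were exposed to compounds in concentration-response for 18-24 h at 37 deg C. Viability was read by CellTiter-Fluor fluorescence (Ex 405/Em 525) after 30 min, before the luciferase read.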
% is set by controls: 0 for no effect and ±100 for the full control effect; potency is the fitted concentration of half-maximal effect.

| Compound | Potency | activity change, negative = cytotoxicity |
| --- | --- | --- |
| CCC(/C=C1\Sc2ccc(OC)cc2N1CCO)=C\c1sc2ccc(OC)cc2[n+]1CCO | active: 20.6 µM |  |
| Cc1ccc(NC(=S)N/N=C/c2ccc([N+](=O)[O-])s2)cc1 | active: 23.1 µM |  |
| Cc1ccc2c(c1)c1c3n2CCNC3CCC1 (centres undefined) |  | inactive: 3.68% |
| Cc1cccc(NC(=O)C(=O)NNC(=O)c2ccc(C(C)(C)C)cc2)c1 | active: 6.51 µM |  |
| Cc1nc2ccccc2n2c(-c3ccccc3)c3c(=O)n(C)c(=O)n(C)c3c12 |  | inactive: 5.03% |
| CC[n+]1c(/C=C(\C)SC)sc2ccccc21 |  | inactive: -18.1% |
| C[C@@]12CCC=C[C@H]1[C@H](c1ccc3ccccc3c1)N(Cc1ccccc1)C2=O |  | inactive: -0.65% |
| C=CC[C@@H](Cc1ccc(F)cc1)C(=O)OC[C@@H]1CCCN1C(=O)[C@@H](CC=C)CC(=O)N[C@@H](CO)Cc1ccccc1 |  | inactive: 8.2% |
| CN(C)c1ccc(N=C/C=C2/N(C)c3ccccc3C2(C)C)cc1 |  | inactive: -29.8% |
| O=C1N[C@@H](Cc2c[nH]c3ccccc23)COC(=O)[C@H](Cc2ccc(F)cc2)C/C=C\C[C@@H]1CC(=O)N(CCO)Cc1ccccc1 |  | inactive: -21.9% |
| CC(C)(C)[C@H]1COC(=O)[C@H](NC(=O)OCC2c3ccccc3-c3ccccc32)C/C=C\C[C@@H](CC(=O)N[C@H](CO)Cc2ccccc2)C(=O)N1 |  | inactive: -12.6% |
| COc1ccc(/C=C2/SC(=S)N(CCCC(=O)Nc3ccc(O)cc3)C2=O)cc1 |  | inactive: -4.1% |
| COc1cccc(NC(=O)Nc2nc(-c3ccc(OC)c(OC)c3)cs2)c1 | active: 16.4 µM |  |
| COc1ccc(NC(=O)/C(Cl)=C(/Cl)S(=O)Cc2ccccc2)cn1 (centres undefined) | active: 20.6 µM |  |
| COc1ccc(NC(=O)/C(Cl)=C(/Cl)S(=O)Cc2ccc(Cl)cc2)cn1 (centres undefined) | active: 20.6 µM |  |
| COc1ccc(C[C@H]2CN3C(=NC[C@@H]3Cc3ccc(O)cc3)N2C[C@H](C)NC(=O)CCC2CCCCC2)cc1 |  | inactive: -12.6% |
| C1CCC(C(CC2CCCCN2)C2CCCCC2)CC1 (centres undefined) |  | inactive: -1.9% |
| Cc1ccc(SC[C@H](Cc2ccccc2)N2CCN(CCc3ccccc3)CCC2=O)cc1 |  | inactive: -18.3% |
| CN1C(=O)/C(=C2/C=Cc3ccccc3N2CCCS(=O)(=O)O)SC1=S | active: 20.6 µM |  |
| Cn1nnnc1Sc1ncnc2scc(-c3ccc(F)cc3)c12 | inactive |  |
| O=C(C1=C[C@H](c2ccc(Br)cc2)C[C@H](OCCCCO)O1)N1CCN(Cc2ccccc2)CC1 |  | inactive: 1.73% |
| CN1CCCN(S(=O)(=O)c2ccc3c(c2)OCCO3)CC1 |  | inactive: 14.2% |

| Compound | Potency | activity change, negative = cytotoxicity |
| --- | --- | --- |
| COc1ccc(C2CC(c3ccccc3)Oc3cc(OC)c(OC)c(OC)c32)cc1 (centres undefined) |  | inactive: 9% |
| COc1cccc(CN2C(=O)[C@@H]3Cc4c([nH]c5ccccc45)C(C)(C)N3C2=O)c1 |  | inactive: -3.55% |
| CCN1C(=O)/C(=C2/C=Cc3cc(C)ccc3N2CC)N(C)C1=S | active: 23.1 µM |  |
| C=CC[C@@H](CC(=O)N[C@@H](CO)Cc1ccccc1)C(=O)NC[C@H](OC(=O)[C@@H](CC=C)Cc1ccc(F)cc1)c1ccccc1 |  | inactive: -12.2% |
| OCC(O)[C@@H](O[C@H]1O[C@H](CO)[C@@H](O)[C@H](O)[C@H]1O)[C@H](O)[C@@H](O)CO (some centres undefined) |  | inactive: 0.97% |
| Cc1ccc(C(=O)c2cc([N+](=O)[O-])ccc2N2CCCCC2)cc1 | active: 16.4 µM |  |
| CCN1CCN(c2ccc(Nc3ccnc4ccccc34)cc2)CC1 | active: 6.51 µM |  |
| CCOc1ccccc1NC(=O)CCn1nc(C)c(S(=O)(=O)N2CCCCC2)c1C |  | inactive: 0.783% |
| O=S(=O)(Nc1cccc(-c2ccc(N3CCCCCC3)nn2)c1)c1cccc(F)c1 |  | inactive: -1.47% |
| CNc1ccc(Br)cc(C(=O)/C=C/c2ccc(Cl)cc2Cl)c1=O | active: 20.6 µM |  |
| Fc1ccc(C2CCNCC2COc2ccc3c(c2)OCO3)cc1 (centres undefined) |  | inactive: -13.2% |
| O=S(=O)(N[C@H]1C[C@@H](NS(=O)(=O)OCC(Cl)(Cl)Cl)C2CCCCC21)OCC(Cl)(Cl)Cl (some centres undefined) |  | inactive: -3.56% |
| Cn1nnnc1Sc1ncnc2scc(-c3cccc(C(F)(F)F)c3)c12 |  | inactive: -11.5% |
| COc1ccc(S(=O)(=O)Nc2cccc(-c3ccc(N4CCCCCC4)nn3)c2)c(OC)c1 |  | inactive: -24.2% |
| O=C(O)CCCN1C(=O)/C(=C/c2ccc(-c3nc4ccccc4s3)o2)SC1=S |  | inactive: -21.6% |
| CN1C(=O)/C(=C\c2cc(N=Nc3ccccc3)ccc2O)SC1=S |  | inactive: -12.1% |
| COc1ccc(C2c3ccc4ccccc4c3Oc3ncn(CCN4CCOCC4)c(=N)c32)cc1OC (centres undefined) |  | inactive: 0.0539% |
| C=C1C(=O)C23C(O)C1CCC2C12CCCC(C)(COC(C)=O)C1C(O)C3(O)OC2 (centres undefined) | active: 18.4 µM |  |
| CN1CCN(CCCN2c3ccccc3Sc3ccc(Cl)cc32)CC1 |  | inactive: -14.7% |
| O=C(C[C@H]1C/C=C\CC[C@H](Cc2ccc(F)cc2)C(=O)OC[C@@H]2CCCN2C1=O)N[C@H](CO)Cc1ccccc1 |  | inactive: -0.829% |
| O=C(O)C(O)c1ccccc1 (centres undefined) |  | inactive: -2.61% |
| C=CC[C@@H](Cc1ccc(F)cc1)C(=O)OC[C@H]1CCCN1C(=O)[C@@H](CC=C)CC(=O)N[C@@H](CO)Cc1ccccc1 |  | inactive: -22.1% |
